Read counts are not given, so values of variants with three or more changes are uncertain.

Among the data in the RNAGym collection of RNA variant scans (doi:10.7554/elife.90254) are self-cleavage values, retold here.

B1: OR4K15 (parent)
chain: GUUAACGGUCAUAGGCCAUGGAAACUAGGAGCACCAUUUCGCUGCCAGUGAAGAAAUGAACAAAGAAAAUCUGGGCCAGGCAGGCAUCAAAAGAAAUAGUCUUGCGCUCAACCAGAAAGUCUGUAAUCAUUUUAAGGGUA

Variants of B1 are the subject of the data set. Nature of the data set: self-cleavage, relative activity (ratio to wild type); higher = more cleavage; in vitro, sequencing; the parent is a self-cleaving ribozyme.
Consider U2A A56G A60G A78U, for which the self-cleavage came out at 0.22.
For the variant U2A A33G U57C A82G, the self-cleavage was determined as 0.46.
Turning to U2A C35U A59G U103C, the self-cleavage stood at 0.5.
The result for U2C A27G U102C reads 1.02.
With U2C A51G U103C U132C, the self-cleavage came to 0.02.
The figure for U2C A27G A47G U49C A55G is 0.49; for U2C A24G A118U it is 0.24; for U2A U26C U57A U72C U87C A91G A94G it is 0.24.
The result for U2C A13U A22G A111G U139C reads 0.07; that for U2C A62G A66G U103C, 0.71.
With U2C A30G A51G, the self-cleavage was 0.93.
For U2C A24G A89G, the self-cleavage turned out to be 1.49.
Consider U2C A33U A86G, for which the self-cleavage was determined as 1.6.
The result for U2A A66U A95U U130A reads 1.18; that for U2C A60G A92G U133C, 1.2.
The result for U2C A18U A60U A116U reads 0.51.
Consider U2C A27G U37C, for which the self-cleavage was determined as 1.34.
The result for U2C A13G A94G reads 0.89; that for U2C A18U A23G U43C A60G, 1.69.
Take U2C A5G A59G A62G A95G U103G U108A G123A U133C: the self-cleavage was 0.03.
The result for U2C A23G A30G reads 1.87; that for U2C A24G A60G, 1.02.
For the variant U2A U39C A64U A86G A111G, the self-cleavage was determined as 0.21.
Regarding U2C A23G U43A A78C C101U, the self-cleavage turned out to be 0.01.
The figure for U2A C81U A129U is 0.25.
The figure for U2C A23G C34G A47U A59G is 0.57; for U2C A27G A111G it is 0.04; for U2C A24G A114U A118G it is 0.04.
The figure for U2C A55U A56C A126G is 1.18; for U2C A5G A59G A67G G79A U103C C109G it is 0.05; for U2C A22G A33G A51G A63U A89G A111G A118G U132C it is 0.
U2A A110C A117U A126G: the self-cleavage came out at 0.1.
U2C A59U A118G: the self-cleavage is 0.77.
The result for U2C A11G A89C A140G reads 0.6; that for U2C A13G A62U U139C, 1.48; that for U2C A11U A64G U103C A129G, 0.48.
The figure for U2C A59U A91G U122C A140G is 0.
Consider U2A A55G A89G, for which the self-cleavage was determined as 0.93.
The result for U2C A11G A47U A59U A63C A91G A95G reads 1.48; that for U2C A22G U57C U130C, 0.86; that for U2C A18C A24G A60U A94G, 1.15.
The result for U2C A47U U70A U139C reads 0.69; that for U2C A62G A67G U100C, 1.55; that for U2A G29A A47U A67G A78U U122A U139C, 0.8.
The figure for U2A U19C A22G A23G A117G is 1.41; for U2A U100C A118G U127C it is 1.18.
Turning to U2C A23G G104A A111G, the self-cleavage stood at 0.09.
For U2C A23G A51G A60G U103C, the self-cleavage is 0.67.
The result for U2C A30G A126G reads 0.3; that for U2A A94G U103C, 0.79.
Consider U2C A11G A111G, for which the self-cleavage stood at 0.02.
In the case of U2C A56G A67G A111G C128U, the self-cleavage was found to be 0.03.
U2C A24G A78G A92G: the self-cleavage stood at 0.25.
On to U2C A30U A94G, for which the self-cleavage came to 0.92.
For the variant U2C A22U A78G, the self-cleavage worked out at 0.28.
The result for U2C A18C U70C reads 0.39; that for U2C A11U A47G A90U A94G, 0.68.
The result for U2C A23G A36G U103C reads 0.4; that for U2C A22G A96G A129G, 0.82; that for U2C A55U A67G, 1.5.
On to U2A A33G U39C U131C, for which the self-cleavage was found to be 0.33.
The figure for U2C A30G A60G A68G U100C A118G A135G is 0.
The figure for U2C A30U U127C is 0.65.
For the variant U2A A51G U127C, the self-cleavage came out at 0.25.
As to U2C A23G U38C A52G A54G, the self-cleavage amounted to 0.86.
Consider U2C A33G A64G, for which the self-cleavage was 0.73.
As for U2C A51U C77U, the self-cleavage was 1.36.
Consider U2C A54G A95G A111G, for which the self-cleavage amounted to 0.04.
As for U2C A63U A89G, the self-cleavage came out at 1.31.
With U2C A64G A67U A82G U102C A111G, the self-cleavage stood at 0.
Regarding U2C A18U A30G, the self-cleavage came to 0.83.
U2A A62U A68G: the self-cleavage is 1.21.
With U2C A5G G14A U39A, the self-cleavage stood at 0.8.
The figure for U2C A22C U38C U108A A125G is 0; for U2A U103C A110G it is 0.
In the case of U2C A66G A67U, the self-cleavage turned out to be 1.38.
Regarding U2C A66G U87C, the self-cleavage was 1.83.
The result for U2A C46U A116G A126G reads 0.26.
Consider U2C A30G A60G A89G, for which the self-cleavage is 1.6.
Consider U2A A90G A116G, for which the self-cleavage was 0.
The figure for U2C A30U U38C A66U U131C U139C is 0.69; for U2C A59G A110G C112A it is 0.03; for U2C A56G A67U U131C it is 1.33.
The result for U2C A23G A69G A90G reads 0.69.
The figure for U2A A47U A116U is 0.23; for U2C A55G A86G A91G it is 0.14; for U2C A24G A91G it is 0.86.
As to U2C A56G U102C, the self-cleavage is 1.94.
The result for U2A A51U A52G U57C reads 1.65; that for U2A A59G A114G A126G A135G, 0.09.
The result for U2C A24G U26C A95G reads 0.44; that for U2C A51G U130C, 0.14.
The figure for U2C A23G A36U A63U is 0.55.
For U2A U19A A125G, the self-cleavage is 0.57.
The figure for U2C A24G A30G G44A U49G A64G is 1.04; for U2A A86G U102A it is 1.24; for U2C A30G A82G it is 0.45.
The figure for U2C A23G A94G is 1.04; for U2C A5G U97A it is 1.31.
Turning to U2C A33G U102C, the self-cleavage amounted to 0.91.
U2C A51G G74C A96G U108A: the self-cleavage amounted to 0.06.
Regarding U2C A5U A36G U57C, the self-cleavage worked out at 1.81.
The result for U2C A33G A56G U108A U127C reads 0.06.
Turning to U2A A36G U49C, the self-cleavage turned out to be 2.67.
The figure for U2A A52G A62G A116G is 0.95.
The result for U2C A23C A64G U100C reads 1.83; that for U2C A62G A67G A86G, 0.89.
Take U2A A36G U43C: the self-cleavage is 0.87.
The result for U2A U43C U49A reads 0.72.
For the variant U2C A22G A54G U72A, the self-cleavage came out at 0.53.
The figure for U2C A5G A23G A51U U103A is 0.64; for U2C A11G A54G it is 0.88.
Turning to U2C A18U U43C A86G A92C U122C, the self-cleavage was determined as 0.63.
The result for U2C A13U A30G A78U C105U A117G reads 0.04; that for U2C A18U A33G A36G U108C U130C, 0.01; that for U2A U39A A51G A60G U70C U102C, 0.95.
The figure for U2A A66U A82G U87C U130C is 0.05; for U2C A33G A51G A52U A56G A118G it is 0.4; for U2C A51G A55U U97A it is 1.2.
The figure for U2C A23G A47G A67U is 1.34.
Regarding U2C A5G A23G A24C, the self-cleavage is 0.62.
The figure for U2A A114G U132C is 0.2; for U2C A13U A54G it is 1.32; for U2A U9C U19C A59G U108C G137A it is 0.12.
The figure for U2C A64G A82G is 0.86; for U2C A4G A23G A52C A54G A82G U120G A126G it is 0.27; for U2C A52G A96G it is 2.06.
The figure for U2C A5U A54G A86U A96G U132C is 1.24.
Regarding U2C A18C A33U A52G A96G, the self-cleavage is 1.61.
The figure for U2C A54G A69G U132G is 1.69; for U2A A69G U102G U127C it is 0.74; for U2C A27G U38C A59G A60G A90G it is 0.
As to U2C A59G A67G A95G A140G, the self-cleavage is 0.8.
The figure for U2C A5U A18G A54G U102G G106A is 0.07.
As to U2A A82G U102C U120C U131C, the self-cleavage was 0.57.
As to U2A U39A A96U U102C, the self-cleavage is 1.01.
Turning to U2C A27G A89U U100C, the self-cleavage was 1.8.
For the variant U2C A54U A82G A86G A110U, the self-cleavage worked out at 0.07.
The figure for U2C A56G A92G A110G A126G G138A is 0.08.
U2C A47U U49C U100A U122C: the self-cleavage is 0.1.
The result for U2C A22G A54G A110U reads 1.39.
The result for U2C A47U A90G reads 0.52; that for U2C A13U A18G U72C U108G, 0.07.
The result for U2C A24U U70C G75A A89U U103C reads 0.03; that for U2C A4G A56G U57A U120A, 0.57.
Take U2A U12C A24G U37C A89C A118G: the self-cleavage worked out at 0.86.
The result for U2C A4U U37C U38C A67G U132A reads 1.15.
On to U2C A55G A56G, for which the self-cleavage came to 1.14.
On to U2C A51G A56G A116G, for which the self-cleavage came to 0.63.
As to U2A C16A C61A, the self-cleavage is 1.57.
The figure for U2C A13U A89G is 0.51.
The figure for U2C A23G A52G A66G A89G is 1.31.
For U2C A13U A52G A68G A96G, the self-cleavage was 0.49.
Regarding U2C A64U A111G U132C, the self-cleavage turned out to be 0.01.
The figure for U2A U37C G99U U100C U131C is 0; for U2C A54G A90G it is 1.6; for U2C A13G C16A A59U A116U it is 0.49.
The figure for U2C A13G A66U A68G A135G is 0.5.
Take U2A U3C G14A A30G C88U A116G: the self-cleavage came out at 0.52.
The figure for U2C A60G A66U U70C A110G is 0.06; for U2A U49A A95G it is 0.63.
For U2C A23G A68U A86U A89G U132C, the self-cleavage was found to be 0.6.
The result for U2C A52G U102C A126G reads 0.73.
U2A A51G A63G: the self-cleavage was 0.89.
The result for U2A U39C A54G G74A C128U reads 0.44; that for U2C A52G A59C U130C, 0.2.
U2C A64G A69G: the self-cleavage is 0.17.
